SMILES strings stand for the structures. Among all 150,000 compounds or so, about 540 (0.36%) showed an effect of 50% or more. Some of the results follow.

As usually defined, the % Inhibition is the relative decrease from the control value, in per cent.

This test has as its system Plasmodium falciparum. Briefly: Primary screen in NF54 nanoGlo assay, in single point, at 2uM, 72h; a lower Z score goes with more inhibition. It counts as functional, Erythrocyte. As to conditions: timepoint 72 hour.
Regarding `Cc1[nH]ncc1CCCNc1ccc(F)cn1`, the “% Inhibition” value is on record as -2% and the Z score is recorded as 0.3.
On to `COc1ccc(CN2CC[C@H](CNC(=O)c3cnc[nH]3)C2)cc1C`, for which the “% Inhibition” value is -3% and the Z score is 0.37.
In the same order, the values of `CCCCn1ccnc1[C@](O)(CC(C)=O)C(F)(F)F` are 1% and -0.19.
The matching figures for `CC(=O)N1CC(C(=O)N(Cc2ccc(C)o2)c2ccc(F)cc2)C1`: 1% and -0.18.
As for `CCNC(=O)[C@H](C)NC(=O)c1csc2c1CCN(Cc1c(C)noc1C)C2`, the “% Inhibition” value is given as -11% and the Z score is reported as 1.23.
With `CCCCn1nc(CC(N)=O)nc1[C@H]1CCC(=O)N(C2CCCC2)C1`, the “% Inhibition” value was -5% and the Z score was 0.59.
As for `COc1ccc(OCc2nc(C(=O)N3CC4(C)CN(C)CC(C)(C3)C4)co2)cc1`, the “% Inhibition” value amounted to 4% and the Z score is on record as -0.83.
In the same order, the values of `CCn1cc(CN2CCn3c(Cc4ccccc4)nnc3C2)c(C)n1` are -4% and 0.7.
On to `C[C@]1(c2cccnc2)NC(=O)N(CCc2ccccc2Cl)C1=O`, for which the “% Inhibition” value is given as -12% and the Z score came to 0.98.
Turning to `Cc1nn(CCOc2ccccc2)c(=O)n1-c1ccc(Oc2ccccc2)cc1`, the “% Inhibition” value was determined as 3% and the Z score is listed as -0.42.
For `O=C(c1ncn2c1CO[C@H](c1ccccc1)C2)N1CCC(C(=O)N2CCOCC2)CC1`, the “% Inhibition” value is recorded as -16% and the Z score worked out at 1.83.
On to `CC(O)(C(=O)NC[C@@H]1CCC[C@H]1O)C1CC1` (stereo partly drawn), for which the “% Inhibition” value is recorded as -21% and the Z score was found to be 3.82.
`O=C(Nc1cc(F)cc(F)c1F)N[C@H]1CCOC1`: the “% Inhibition” value was -5% and the Z score was found to be 1.08.
In the same order, the values of `Cc1nc([C@H](C)Nc2nc(-c3ccc(Cl)cc3)nc3c2CNC3)n[nH]1` are -5% and 0.67.
In the case of `O=C(Cn1ccc(=O)n2nccc12)Nc1ccc(Cl)c(Cl)c1`, the “% Inhibition” value is on record as -1% and the Z score is 0.12.
The matching figures for `O=C(Cc1csc2ccccc12)NCc1cccs1`: -9% and 1.34.
Consider `O=C(NCCn1ccc2ccoc2c1=O)c1ccccc1Cl`, for which the “% Inhibition” value was -6% and the Z score was determined as 1.06.
In the case of `CN1CCCN(C(=O)CCn2ccc3ccccc32)CC1`, the “% Inhibition” value turned out to be 11% and the Z score is recorded as -1.33.
Take `O=C(CN1C(=O)CCC1=O)N1CCN(C(=O)c2cc3c(s2)CCCCCC3)CC1`: the “% Inhibition” value is -17% and the Z score is 1.52.
Consider `O=c1c(Nc2ccc(OCC3CC3)cc2)nccn1C1CC1`, for which the “% Inhibition” value was found to be 8% and the Z score is reported as -1.3.
Turning to `CC(=O)N[C@@H]1C[C@H](Cc2ccccc2)O[C@H](c2cccc3cnccc23)C1`, the “% Inhibition” value is listed as -15% and the Z score is 1.66.
For `CCC1CN2CCCC2CN1C(=O)NCCc1cccc(C#N)c1` (stereo not drawn), the “% Inhibition” value is recorded as -16% and the Z score was determined as 1.84.
Take `Cc1noc(C)c1C(=O)N[C@@H](C)Cc1cc2ccccc2o1`: the “% Inhibition” value is on record as -6% and the Z score came out at 1.05.
The matching figures for `CCc1cc(-c2nc([C@H](NC(=O)OC(C)(C)C)c3ccccc3OC)no2)n[nH]1`: 0% and -0.05.

(Values after ChEMBL document CHEMBL4888484, “Replenishing the malaria drug discovery pipeline: Screening and hit evaluation of the MMV Hit Generation Library 1 (HGL1) against asexual blood stage Plasmodium falciparum ,using a nano luciferase reporter read-out” (2022).)
